# The campaign covered roughly 310,000 compounds. About 2,200 (0.71%) showed an effect of 50% or more. The effect is printed as a negative number. This is one part of the list.
# Target: human ether-à-go-go-related gene (hERG) potassium channel (human, UniProt Q12809)
# Assay: primary screen, population patch clamp on CHO cells stably expressing hERG
# human ether-à-go-go-related gene (hERG) potassium channel, sequence (Q12809 whole entry, looked up): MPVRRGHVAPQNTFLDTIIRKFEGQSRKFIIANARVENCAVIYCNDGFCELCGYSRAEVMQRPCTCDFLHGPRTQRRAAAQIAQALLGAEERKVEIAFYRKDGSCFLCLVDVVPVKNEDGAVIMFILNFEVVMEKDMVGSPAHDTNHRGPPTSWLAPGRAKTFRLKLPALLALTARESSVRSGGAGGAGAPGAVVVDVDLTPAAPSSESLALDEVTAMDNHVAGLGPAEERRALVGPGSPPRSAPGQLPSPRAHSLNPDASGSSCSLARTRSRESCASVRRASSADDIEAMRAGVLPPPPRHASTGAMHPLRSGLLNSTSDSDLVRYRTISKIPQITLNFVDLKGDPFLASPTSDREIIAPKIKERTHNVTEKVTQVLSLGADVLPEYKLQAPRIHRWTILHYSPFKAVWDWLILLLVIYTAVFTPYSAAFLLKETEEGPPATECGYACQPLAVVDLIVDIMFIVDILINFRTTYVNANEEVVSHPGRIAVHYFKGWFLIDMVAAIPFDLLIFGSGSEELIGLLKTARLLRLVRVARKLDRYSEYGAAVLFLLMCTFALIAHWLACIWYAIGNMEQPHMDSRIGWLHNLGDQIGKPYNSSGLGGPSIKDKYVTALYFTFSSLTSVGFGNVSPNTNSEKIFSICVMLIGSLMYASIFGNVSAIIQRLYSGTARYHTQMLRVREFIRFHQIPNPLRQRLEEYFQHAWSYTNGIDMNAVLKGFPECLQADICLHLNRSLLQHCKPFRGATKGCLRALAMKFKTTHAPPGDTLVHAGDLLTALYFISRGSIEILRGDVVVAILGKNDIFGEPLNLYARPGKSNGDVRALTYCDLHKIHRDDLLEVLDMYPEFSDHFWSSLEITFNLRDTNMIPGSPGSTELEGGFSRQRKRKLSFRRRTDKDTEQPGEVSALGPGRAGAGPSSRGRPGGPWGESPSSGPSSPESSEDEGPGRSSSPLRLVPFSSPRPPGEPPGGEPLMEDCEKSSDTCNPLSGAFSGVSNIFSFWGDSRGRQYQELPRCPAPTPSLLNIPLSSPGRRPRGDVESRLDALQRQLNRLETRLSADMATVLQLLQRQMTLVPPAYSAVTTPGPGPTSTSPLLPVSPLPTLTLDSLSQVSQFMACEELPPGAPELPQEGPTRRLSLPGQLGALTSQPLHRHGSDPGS
row,Structure (SMILES),"hERG current change (%, negative = inhibition) at 1uM [%]"
1,CCC(Sc1nc(C)cc(=O)[nH]1)C(=O)Nc1nnc(C)s1 (stereo not shown),14.7
2,CN(Cc1c(C(=O)N2CCCCCCC2)nc2ccc(Cl)cn12)C1CCOC1 (stereo not shown),17.6
3,Cc1ccc(OCCn2cnc3cc([N+](=O)[O-])ccc3c2=O)cc1,5.65
4,Cc1cc(C(=O)CN2CC(C)OC(C)C2)c(C)n1-c1ccccc1 (stereo not shown),11.6
5,O=C(NCC1CCCO1)c1cc(-c2ccncc2)nc2ccc(S(=O)(=O)N3CCOCC3)cc12 (stereo not shown),-16.4
6,CCOC(=O)[C@H]1[C@H]2COc3ccccc3[C@@H]2N2C(=O)c3cc(OC)c(OC)cc3NC(=O)[C@@]12C,5.31
7,COC(=O)c1ccc(S(=O)(=O)NCc2ccc(S(N)(=O)=O)cc2)n1C,14.3
8,Cc1cccc(C)c1NC(=O)C1c2ccccc2Oc2ccccc21,11.8
9,COc1ccc(NC(=O)CSc2nc3ccccc3c(=O)n2CCC(=O)N2CCCCC2)cc1,-16.5
10,CN=C(Nc1cccnc1)c1cccc(C(F)(F)F)c1,16.7
11,CC(C)(C)C1CCC(C(=O)Nc2ccc(N3CCOCC3)cc2N2CCOCC2)CC1 (stereo not shown),0.486
12,COc1ccc(-c2noc(N3CCC(C(=O)N(C)c4ccccc4C)CC3)n2)cc1,-3.76
13,CCCCNC(=O)/C(=C\c1ccc([N+](=O)[O-])o1)NC(=O)c1ccccc1,-6.47
14,COC(=O)C1=C(C)N(CCc2c[nH]c3ccc(OC)cc23)C(=O)C1,4.46
15,CCOCCn1c(SCc2ccccc2)nc2c1c(=O)[nH]c(=O)n2C,2.64
16,Cc1nn(C)c(C)c1CN(C)C(=O)c1cc2n(n1)C(C(F)(F)F)CC(c1cccs1)N2 (stereo not shown),7
17,COc1ccccc1Nc1nc2nonc2nc1N1CCC(C)CC1,11.1
18,O=C(NCC(c1cccnc1)N1CCN(c2ccc(F)cc2)CC1)Oc1ccccc1 (stereo not shown),-2.05
19,CC(OC(=O)Cc1c[nH]c2ccccc12)C(=O)c1ccccc1 (stereo not shown),10.7
20,CCN(CC)c1ccc(/C=N/N2C(=O)c3ccccc3C2=O)c(O)c1,-2.93
21,Cc1ccc(C2=Nc3ccccc3SC(c3cccc([N+](=O)[O-])c3)C2)cc1 (stereo not shown),12
22,CCN(Cc1ccccc1)C(=O)CSc1nc(C)cc(C)c1C#N,4.25

row,Structure (SMILES),"hERG current change (%, negative = inhibition) at 1uM [%]"
1,CC1(C(=O)O)CCC(C(=O)NC2CCCCCC2)C1(C)C (stereo not shown),-0.0323
2,CN1CCc2nc(SCC(=O)Nc3ccc(OC(F)(F)F)cc3)c(C#N)c(-c3cccs3)c2C1,9.86
3,O=C(NNC(=O)c1ccccc1Cl)c1ccco1,11.3
4,N#Cc1c(-c2ccccc2)oc(=O)c2ccccc12,8.23
5,Cn1c(C(=O)N[C@@H](Cc2ccccc2)C(=O)O)cc2cc(Cl)ccc21,13.2
6,Cc1nn(CCc2nn[nH]n2)c2nc(-c3ccc(Br)cc3)cc(C(F)(F)F)c12,14.4
7,Cc1ccc(S(=O)(=O)NCC(c2ccco2)N2CCc3ccccc3C2)cc1 (stereo not shown),2.72
8,O=C(N=NC(=O)c1ccc2c(O)n(C3CCCCC3)c(O)c2c1)c1cccnc1,11.4
9,COCCCNC(=O)c1ccc2nc(Cc3ccc(OC)cc3)oc2c1,10.8
10,COc1ccc(-c2[nH]c(-c3ccc(C)cc3)nc2SCC(=O)Nc2nccs2)cc1,21.6
11,CCOc1cc(/C=C\c2[nH]c(=O)[nH]c(=O)c2[N+](=O)[O-])ccc1OC(C)CC (stereo not shown),6.22
12,CC(=O)NC(Cc1ccccc1)C(=O)NC1CCN(c2ncccc2[N+](=O)[O-])CC1 (stereo not shown),10.5
13,Cc1ccc(S(=O)(=O)Nc2ccc(C(=O)NCc3ccccn3)cc2)cc1,0.847
14,CCOC(=O)Cn1c(=O)oc2cc(S(=O)(=O)N3CCc4ccccc43)ccc21,4.82
15,CN(C)c1ccnc2sc3c(=O)n(-c4ccccc4)cnc3c12,0.304
16,CCOc1ccc(NC(=O)C2CC(=O)N3CCCN=C3S2)cc1 (stereo not shown),13.4
17,CN(CC(=O)NCc1ccccn1)S(=O)(=O)c1ccc(Br)cc1,4.07
18,Cc1cc(C(=O)NC2CCCc3c2cnn3-c2cc(F)cc(F)c2)nn1C (stereo not shown),8.75
19,Cc1ccc(NC(=O)COC(=O)c2cc(Cl)cc(Cl)c2)c(Br)c1,-4.16
20,O=c1c2[nH]c3cccc(Cl)c3c2ncn1Cc1ccncc1,-4.11
21,Cc1c(C)c2c(OCC(=O)Nc3cccnc3)cc3c(c2oc1=O)CCC(C)(C)O3,11.6
22,Cc1cc(C(N)=O)nn1-c1c(Cl)cc(Cl)cc1Cl,11.7

row,Structure (SMILES),"hERG current change (%, negative = inhibition) at 1uM [%]"
1,CCOC(=O)c1c(C)[nH]c(O)c1C=Nc1ccc(Cl)cc1,9.07
2,COc1ccc2c(c1)SC(C)CC2=O (stereo not shown),2.94
3,CCCCCOc1cccc(C2C(C(=O)c3cccs3)=C(O)C(=O)N2CCN2CCOCC2)c1 (stereo not shown),9.99
4,CCc1ccc(OCc2nnc(-c3ccccc3Br)o2)cc1,10.6
5,COCCCN(C(=S)Nc1ccc(OC)cc1)C(C)c1ccncc1 (stereo not shown),3.22
6,O=C(c1cc2cc(Cl)ccc2[nH]1)N1CCN(c2ccccc2F)CC1,14.6
7,COc1ccc(CC(=O)NC2CC(C)(C)NC(C)(C)C2)cc1,17.3
8,CC(=O)Nc1ccc(N2CCCC2)cc1,14.7
9,O=S(=O)(c1ccc(Cl)cc1)N1CCC(O)(CN2CCN(Cc3ccccc3)CC2)CC1,-75.6
10,CC1=CN2C(=NC(=O)CC2(C)C(=O)N(CC(=O)NC2CCCC2)c2cc(C)cc(C)c2)C=C1 (stereo not shown),12.9
11,CN(CC(=O)Nc1ccc(Cl)c(C(F)(F)F)c1)C(=O)/C=C/c1ccco1,3.73
12,COc1ccccc1CNC(=O)c1ccc2nc3[nH]c4ccccc4c3nc2c1,-3.22
13,O=C(CSc1nnc(SCc2ccc(Cl)cc2)s1)c1ccc2c(c1)OCO2,9.1
14,O=S(=O)(/C=C/c1ccccc1)N1CCN(c2nc(-c3cccnc3)nc3ccccc23)CC1,15.3
15,CCN(CC(=O)Nc1sc2c(c1C#N)CCC(C)C2)Cc1nc2ccccc2c(=O)[nH]1 (stereo not shown),4.41
16,C#CCOCCOCCOCCNc1nc(N2CCOCC2)nc(N2CCN(C(=O)[C@H]([C@@H](C)CC)n3cc(CCC[NH+]=C(N)N)nn3)CC2)n1.[Cl-],5.31
17,O=C(CCCc1ccccc1)Nc1nccs1,8.93
18,CCN(CC)c1ccc(/C=N/NC(=O)c2ccc(Br)o2)cc1,5.56
19,Cc1ccc(N(C(C)C(=O)Nc2ccccc2C(=O)N2CCOCC2)S(C)(=O)=O)cc1C (stereo not shown),9.47
20,Cc1ccc(S(=O)(=O)N2CCOCC2)cc1C(=O)NNC(=O)c1ccoc1C,9.64
21,CCOC(=O)c1c(C)n(C)c2ccc(OC(=O)c3ccco3)cc12,8.64
22,CCOc1ccc(-c2nnc(N)o2)cc1,12.6

row,Structure (SMILES),"hERG current change (%, negative = inhibition) at 1uM [%]"
1,Cc1cc(C)c(C)c(S(=O)(=O)N[C@@H](C)C(=O)OCC(N)=O)c1C,9.21
2,COc1ccc2[nH]c(=O)c(CN(C(C)=O)c3ccc(C)c(C)c3)cc2c1,7.2
3,CCOC(=O)C1=C(C)N(C)C(C)=C(C(=O)OCC)C1c1ccccn1,12.5
4,COCc1cc(C)nc(OCC(=O)N/N=C/c2ccc(C)o2)c1C#N,12.2
5,CCCN(C(=O)Cc1ccc(S(=O)(=O)N2CCOCC2)s1)c1c(N)n(Cc2ccccc2)c(=O)[nH]c1=O,12.9
6,O=C(Nc1ccc(Br)cc1)N1CCCCC1,6.36
7,COc1ccc(N(CC(=O)NC(C)C)C(=O)CCC(=O)Nc2ccccn2)cc1,14.6
8,O=C(O)c1ccc(NC(=O)c2ccccc2NC(=O)c2ccccc2Cl)cc1,14.5
9,Cc1ccc2c(C)c(C(=O)N(C)Cc3nccn3C)oc2c1C,-0.734
10,CCCCn1nnc(NC(=O)COc2cc(C)ccc2C(C)C)n1,9.26
11,CC(C(=O)N1CCN(c2ccccc2)CC1)N1C(=O)C2CC=CCC2C1=O (stereo not shown),10.3
12,O=C(Nc1ccccc1)c1nnsc1S(=O)c1ccc(Cl)cc1 (stereo not shown),12.9
13,CC(C)(C)c1ccc(OCCC(=O)OCC(=O)Nc2ccc(N3CCOCC3)cc2)cc1,19
14,Cc1cc(C(=O)N2CCC(C(=O)O)CC2)c(C(F)(F)F)o1,14.6
15,C=CCc1ccccc1OCCNCc1ccccc1.O=C(O)C(=O)O,11.7
16,CC1CCN(Cc2cc(=O)oc3ccc4ccccc4c23)CC1,-2.55
17,CCOC(=O)N1CCN(c2c(NCc3ccc(F)cc3)c(=O)c2=O)CC1,8.84
18,COc1c(/C=N/Nc2ccc(C(=O)O)cc2)c(CCN(C)C(C)=O)cc2c1OCO2,5.59
19,COc1ccc(C2SCC(=O)N2c2c(C)n(C)n(-c3ccccc3)c2=O)cc1OC (stereo not shown),13.5

# Source: publication PMC4336329 (PLoS ONE, 2015)
